For experiment [1], the target named is T1, trastuzumab Fab fragment.
T1 construct: also called Fab (VH-3); VH3/Fab
Nature of the experiment: SPR, polypeptide on CM5 chip, trastuzumab Fab as analyte. On the technique in general: Surface plasmon resonance follows binding to a sensor surface in real time, without labels.

Experiment [2] concerns the target T1, trastuzumab Fab fragment. The description is as above. The source holds these as a separate data set.

Read-outs that look alike come from different tables or passages of the source.

B1: SEQ ID NO:205 (Group 2 Fc knock-out variant of SEQ ID NO:190) (designed binder)
chain: ADSKFDEAAYRALAEIARLPSLTEDQRAGFIQSLKDDPSTSKSLLGEAKKLNDAQAPP
Turning to B1, in the experiment with trastuzumab Fab fragment [1], the binding result is listed as “no binding (tested: 500 nM)”.

B2: SEQ ID NO:218 (Group 3 Fc knock-out variant of SEQ ID NO:190) (designed binder)
chain: ADSKFDEAAYRALAEIARLPSLTEDSRAGFIQSLKDDPSTSKSLLGEAKKLNDAQAPP
Turning to B2, in the experiment with trastuzumab Fab fragment [1], the binding result is on record as “no binding (tested: 500 nM)”.

B3: IgG binding polypeptide SEQ ID NO:192 (Group 1, before mutations) (designed binder)
chain: VDAKFNKEQQNAFYEILNLPNLTEEQRNAFIQSLRDDPSQSANLLSEAKRLNESQAPG
For B3, the binding result in the experiment with trastuzumab Fab fragment [1] is “no binding (tested: 500 nM)”.

B4: SEQ ID NO:203 (Group 2 Fc knock-out variant of SEQ ID NO:188) (designed binder)
chain: IAAQHDKDAYRALAEIARLPNLTEEQRAGFIQSLRHDPSVSLEILAEAKKLNDAQAPK
For the molecule B4, in the experiment with trastuzumab Fab fragment [1], the binding result is listed as “no binding (tested: 500 nM)”.

B5: SEQ ID NO:216 (Group 3 Fc knock-out variant of SEQ ID NO:188) (designed binder)
chain: IAAQHDKDAYRALAEIARLPNLTEESRAGFIQSLRHDPSVSLEILAEAKKLNDAQAPK
Turning to B5, the binding result in the experiment with trastuzumab Fab fragment [1] was “no binding (tested: 500 nM)”.

B6: IgG binding polypeptide SEQ ID NO:190 (Group 1, before mutations) (designed binder)
chain: ADSKFDEAQQSAFYEILHLPSLTEDQRAAFIQSLKDDPSTSKSLLGEAKKLNDAQAPP
On to B6, for which, in the experiment with trastuzumab Fab fragment [1], the binding result is on record as “no binding (tested: 500 nM)”.

B7: IgG binding polypeptide SEQ ID NO:186 (Group 1, before mutations) (designed binder)
chain: IAAQHDKDQQAAFYEILHLPNLTEEQRNAFIQSLRDDPSVSLEILAEAKKLNDAQAPK
For the molecule B7, the binding result with trastuzumab Fab fragment [1] is recorded as “no binding (tested: 500 nM)”.

B8: IgG binding polypeptide SEQ ID NO:188 (Group 1, before mutations) (designed binder)
chain: IAAQHDKDQQAAFYEILHLPNLTEEQRNAFIQSLRHDPSVSLEILAEAKKLNDAQAPK
As for B8, the binding result with trastuzumab Fab fragment [1] is “no binding (tested: 500 nM)”.

B9: IgG binding polypeptide SEQ ID NO:187 (Group 1, before mutations) (designed binder)
chain: IAAQHDKEHQAAFYEILHLPNLTEDQRNAFIQSLRDDPSVSLEILGEAKKLNDAQAPK
B9: in the experiment with trastuzumab Fab fragment [1], the binding result is recorded as “no binding (tested: 500 nM)”.

B10: SEQ ID NO:204 (Group 2 Fc knock-out variant of SEQ ID NO:189) (designed binder)
chain: ADNKFNKEAYRALAEIARLPNLTEEQRAGFIQSLRDEPSVSKEILAEAKKLNDAQAPK
As to B10, the binding result with trastuzumab Fab fragment [1] was “no binding (tested: 500 nM)”.

B11: SEQ ID NO:217 (Group 3 Fc knock-out variant of SEQ ID NO:189) (designed binder)
chain: ADNKFNKEAYRALAEIARLPNLTEESRAGFIQSLRDEPSVSKEILAEAKKLNDAQAPK
Take B11: in the experiment with trastuzumab Fab fragment [1], the binding result is reported as “no binding (tested: 500 nM)”.

B12: SEQ ID NO:208 (Group 2 Fc knock-out variant of SEQ ID NO:193) (designed binder)
chain: VDAKFNKEAYRALAEIARLPNLTEEQRAGFIQSLRDDPSTSKSILKEAKKLNKAQAPK
Take B12: the binding result in the experiment with trastuzumab Fab fragment [2] is listed as “no binding”.

The record behind these values is patent US20260062452A1 (CYTIVA BIOPROCESS R AND D, published 2026).
